Laboratory results from PubChem BioAssay AID1508623 (National Center for Advancing Translational Sciences (NCATS), 2021).
Hit rate of the full screen: of about 48,000 compounds, about 450 (0.94%) were called active. Not shown: some 19% with an inconclusive outcome. Calls follow the shape of the dose curve; as a rule, active = well fitted inhibition curve with a large enough effect; inconclusive = small, poorly fitted or top-dose-only effect; inactive = no such curve, though single readings can be large or run the other way. The list shows a part of the results.

Test: Primary qHTS for Identification of Small Molecule Inhibitors of Huntingtin Promoter Activity; also: nearly all actives have a fitted effect of over 50% in size
Conditions: HEK293 HTT promoter firefly luciferase reporter (activity 0% = vehicle and -100% = no light), 24 h; series mostly up to 57.5 µM; activity change, negative = inhibition: at the top concentration
Outline: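 Firefly luciferase readout (Dual-Glo, 10 min RT) after 24 h, 37 °C compound exposure (final up to 57.5 uM) of HEK293 reporter cells cultured 24 h beforehand; PTC124 at 50 uM final as control inhibitor; activity scaled vehicle 0%, zero RLU -100%.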

Activity change, negative = inhibition, inactive:
CCOc1ccc(CN2C(=O)c3ccccc3Sc3ccc(C(=O)N4CCN(C)CC4)cc32)cc1 -20.7%
CCC(Sc1nc2cc(OC)c(OC)cc2c(=O)n1Cc1ccc(Cl)cc1)C(=O)NCCOC (centres undefined) -3.28%
Cc1cc(NC(=O)c2cccnc2)cc(-c2nc3cc(Cl)ccc3o2)c1O -5.89%
Brc1ccc(-c2ccc(CNCCSc3nnnn3-c3ccccc3)o2)cc1 60.2%
O=C(NC1CC(=O)N(c2ccccc2)C1)c1ccc(S(=O)(=O)N2CCOCC2)cc1 (centres undefined) -30.8%
c1ccc(-c2cn(-c3ccccc3)c3ncnc(N4CCN(c5ccccc5)CC4)c23)cc1 -16%
COc1ccccc1N1CCN(c2ccc3cc(S(=O)(=O)N4CCCCC4)ccc3n2)CC1 -28%
CCOC(=O)CC(NC(=O)c1cc2cc(Cl)ccc2oc1=O)c1ccc(C)cc1 (centres undefined) -7.88%
CCOc1ccc(-n2nc(CO)c(C(=O)NCc3ccc(Cl)cc3)n2)cc1 0.147%
CC1CCN(C(=O)CSc2c3c(nc4cc(Cl)ccc24)CCCC3)CC1 -15.2%
Cc1ccc(-c2nnc(SCCOc3ccccc3)o2)cc1 16.4%
COc1ccc(Br)c2c1-c1nc(NC(=O)c3cccc(C)c3)sc1C2 -7.36%
CC(=O)c1ccc(NC(=O)CSc2cn(CC(=O)N3CCCCC3)c3ccccc23)cc1 -16.8%
O=C(Nc1ccc(S(=O)(=O)N2CCC(c3nc4ccccc4s3)CC2)cc1)c1ccc(F)cc1 -10.9%
Cc1cc(C)c(S(=O)(=O)NCCc2cc3c(C)ccc(C)c3[nH]c2=O)c(C)c1 -3%
Cc1ccc(NC(=O)C2Cc3ccccc3N2C(=O)c2ccccc2)cc1Cl (centres undefined) -7.64%
Cc1ccc(C)c(-n2nnc(-c3nc(-c4ccc(Cl)cc4)no3)c2N)c1 28.3%
CCCC(=O)NCCc1nc2ccccc2n1Cc1c(F)cccc1Cl -23.6%
COc1ccc(NC(=O)c2sc3nc(C)c(C(=O)Nc4ccc(C)cc4C)c(-c4ccc(Cl)cc4)c3c2N)cc1 -21.9%
O=C(NCc1ccc2c(c1)CCN2C(=O)c1ccncc1)c1cccc(Cl)c1 -4.31%
NNC(=O)c1ccncc1
CN(C(=O)CCCOc1ccc2[nH]c(=O)ccc2c1)C1CCCCC1 -0.849%
Cc1ccc(NC(=O)c2cccc(NC(=O)N3CCSc4ncccc43)c2)cc1Cl -9.29%
COc1ccc(N2CCN(C(=O)Cn3ncc4c3-c3cc(C)ccc3OC4)CC2)cc1 -13.2%
COc1ccc(-c2nc3sc(CCNC(=O)C(=O)Nc4cc(C)cc(C)c4)c(C)n3n2)cc1 -1.07%
CCN(C(=O)c1nn(-c2ccc(OC)c(Cl)c2)c(=O)c2c1c1ccccc1n2C)c1cc(OC)ccc1OC -16.3%
Cc1ccc(C(=O)NCC(c2cccs2)S(=O)(=O)c2cccs2)cc1C (centres undefined) -15.3%
CCOc1ccc(NC(=O)CN(C)S(=O)(=O)c2ccc3c(c2)c(=O)n(C)c(=O)n3C)cc1 -12%
COc1cc(OC)cc(C(=O)Nc2cc(-c3nc4ccccc4s3)ccc2OC)c1 -8.68%
O=C(NCC(c1ccc(Cl)cc1)N1CCCCC1)c1ccc(F)cc1 (centres undefined) -18.1%
COc1cccc(-c2cc(C(F)(F)F)nc(-n3nc(C)c(Br)c3C)n2)c1 -15.4%
Cc1ccc(-n2c(SCc3ccccc3F)nc3[nH]ncc3c2=O)cc1C -18.3% [at 11.5 µM]
Cc1cccc(NC(=O)Cn2nc(-c3ccc(Cl)cc3)c3ccccc3c2=O)c1 -13.1%
COc1ccccc1CNC(=O)c1cccn1-c1nnc(N2CCCC2)s1 -0.25%
Cc1cccc(NC(=O)C(=O)c2cc(C)n(-c3ccccc3)c2C)c1C -26%
CCOc1cccc2cc(-c3nc4sc(C(=O)Nc5ccc(C)cc5)c(C)c4c(=O)[nH]3)c(=O)oc12 -11.8%
CC(=O)c1cc(-c2ccccc2)n(CC(=O)NC2CCCCCC2)c1C -16.1%
Cc1cc(O)c(C(c2cccc(F)c2)N2CCC(C)CC2)c(=O)n1Cc1ccco1 (centres undefined) -9.84%
O=C(Cn1c(=O)n(Cc2cccs2)c(=O)c2cccnc21)Nc1ccccc1F -14.2%
CCc1nc(-c2cc(S(=O)(=O)N3CCN(c4ccc(F)cc4)CC3)ccc2OC)no1 -20.3%
Cc1cccc(NC(=O)CSc2nc3c(c(=O)[nH]2)CN(Cc2ccc4c(c2)OCO4)CC3)c1C -18.8%
CCc1ccc(-n2c(=O)c3cccnc3n2CC(=O)NCc2ccc(F)cc2)cc1 -20.9%
O=C(NCc1cccc(F)c1)c1ccc(CS(=O)c2ccccc2Cl)o1 (centres undefined) -6.19%
CCOC(=O)N1CCc2c(sc3c2c(=O)n(Cc2ccccc2)c(=O)n3CC(=O)Nc2c(C)cccc2C)C1 -14.7%
Cn1c(=O)c(=O)n(C)c2cc(S(=O)(=O)N3CCN(c4ccccc4F)CC3)ccc21 -24.4%
Cc1cccc(C)c1OCC(=O)Nc1nonc1-c1ccc(Br)cc1 -14.1%
CCN(C(=O)CCS(=O)(=O)c1cccc2nsnc12)c1cccc(C)c1 -9.93%
O=C(Nc1nc2n(n1)C(c1ccc(F)cc1)C=C(c1ccc(Cl)cc1)N2)c1ccco1 (centres undefined) -29.8%
CCOc1ccc2oc(=O)cc(CN3CCN(c4ccc(OC)cc4)CC3)c2c1 -9.02%
CCN(C(=O)c1cc2c(s1)-c1c(C)cccc1OC2)c1cc(C)ccc1C -19.8%
COc1ccc(OC)c(NC(=O)Cn2c(=O)oc3cc(S(=O)(=O)NCc4ccccc4)ccc32)c1 -29.8%
O=C(NCC12CC3CC(CC(C3)C1)C2)c1cc2nc(-c3ccc(Cl)cc3)cc(C(F)(F)F)n2n1 -7.28%
Clc1cccc(-c2nnc(CN3CCN(c4ccccn4)CC3)o2)c1 3.68%
Cc1cc(S(=O)(=O)Nc2cc3c(cc2N2CCOCC2)n(C)c(=O)n3C)ccc1F -11.5%
CCc1nc2ccc(C(=O)NCCc3ccc(SC)cc3)cc2nc1CC 2.3%
COC(=O)c1c(SCC(=O)Nc2cccc(C(F)(F)F)c2)[nH]c2ccccc2c1=O -4.89%
COc1ccc(NC(=O)C(CC(C)C)NC(=O)C2CCCCC2)c(OC)c1 (centres undefined) -7.28%
COc1ccc(-n2c(=O)c3ccccc3n(Cc3ccc(F)cc3Cl)c2=O)cc1OC -22.4%
COc1ccc(NC(=O)C2CCN(C(=O)c3sc4nc[nH]c(=O)c4c3C)CC2)c(OC)c1 -1.81%
CCc1ccccc1N1CC(c2nnc(NC(=O)c3ccco3)s2)CC1=O (centres undefined) -12.7%
CCN(CC)S(=O)(=O)c1ccc2c(c1)N(CC(=O)N1CCN(c3cc(Cl)ccc3C)CC1)C(=O)CO2 -9.01%
CC(=O)OCc1cnc(C)c2oc(=O)c(C(=O)Nc3ccc(F)cc3C)cc12 -6.14%
Cc1cccc(N2CCN(c3nc4ccccc4c4nc(-c5ccccc5)nn34)CC2)c1C -3.25%
CC(=O)Nc1nonc1-c1nnc(SCC(=O)Nc2ccccc2Cl)n1C -9.85%
COc1ccc(C2CC(=O)c3cc(-c4nc(-c5ccc(Cl)cc5)cs4)c(=O)[nH]c3C2)cc1 (centres undefined) -15.3%
CC1(C)O[C@@H]2C[C@H]3[C@@H]4C[C@H](F)C5=CC(=O)CC[C@]5(C)[C@H]4[C@@H](O)C[C@]3(C)[C@]2(C(=O)CO)O1 10.3%
CCC(Cc1ccccc1)NC(=O)c1csc2c1CCCCC2 (centres undefined) -9.57%
COc1ccc2c(C)cc(SCC(=O)Nc3nsc(-c4ccc(C(C)(C)C)cc4)n3)nc2c1 56.3%
C[C@H]1C[C@H]2[C@@H]3CCC4=CC(=O)C=C[C@]4(C)[C@H]3C(=O)C[C@]2(C)[C@@]1(O)C(=O)CO 31.3%
COc1ccc2oc(-c3ccc(C)c(NC(=O)c4ccc(N5CCCCC5)c([N+](=O)[O-])c4)c3)nc2c1 2.99%
CC(C)(C)OC(=O)N1CCC(c2c(C(=O)NCCN3CCOCC3)cnn2-c2ccccc2)CC1 -20.1%
COc1ccccc1NC(=O)C1=C(C)Nc2ncnn2C1c1ccc[nH]1 (centres undefined) -18%
COc1ccc(CNC(=O)CN2CCSc3ccccc32)c(OC)c1 -18.6%
CCN(CC)C(=O)Cn1c(SCC(=O)Nc2ccc(C)c(C)c2)nc2ccccc21 -22.6%
O=C(Cn1c(=O)oc2ccccc21)NCc1ccc(Cl)cc1 9.38%
Cc1ccc(-n2ncc3c(NCCc4ccccc4)ncnc32)cc1 17.1%
CCOc1ccc(S(=O)(=O)n2nc(C)c(S(=O)(=O)N3CCCCCC3)c2C)cc1 -11.2%
Cc1cc2oc(C(=O)N(Cc3ccccc3)C3CCS(=O)(=O)C3)cc(=O)c2cc1C (centres undefined) -11.3%
CN1CCN(c2ncc3c(n2)CCN(Cc2ccccc2Cl)C3)CC1 -13.5%
Cc1ccccc1C(=O)Nc1ccccc1C(=O)OCc1cc(=O)n2nc(C3CC3)sc2n1 -12.6%
Cc1ccc(NC(=O)CN2C(=O)C(c3ccccc3)=NC2(C)C)cc1C 1.27%
COc1cccc(C(=O)Nc2ccc3c(c2)CCCN3C(=O)c2cccs2)c1OC -24.6%
Cc1ccc(S(=O)(=O)OCC(=O)Nc2ccc(C(=O)O)c(O)c2)cc1 2.62%
Cc1cc(-c2nc3ncccc3o2)ccc1NC(=O)COc1ccc(C(C)(C)C)cc1 9.84%
Cc1c2cnn(-c3ccccc3)c(=O)c2c(C)n1CC(=O)NCc1ccc(Cl)cc1 -11.5%
Cc1[nH]c(C)c(Cl)c(=O)c1Cl -4.34% [at 25.2 µM]
CC1=C(C(N)=O)C(c2ccc(C(C)C)cc2)n2nc(SCc3ccccc3F)nc2N1 (centres undefined) -12.4%
CCn1cc2nc(SCc3cccc(C(F)(F)F)c3)n(CCc3ccccc3)c(=O)c2n1 -5.59%
CCOc1ccc(NC(=O)Cn2cnc3nc4c(cc3c2=O)CCCC4)cc1 -8.14%
Cc1c(CCNC(=O)c2ccc(C(F)(F)F)cc2)sc2nc(-c3ccc(F)cc3)nn12 4.17%
COc1ccc(CCNC(=O)Cn2c(C)c3cnn(-c4ccccc4)c(=O)c3c2C)cc1OC -11.3%
COc1ccc(-c2[nH]c(-c3ccc(F)cc3)nc2SCC(=O)Nc2ccc(OC)c(OC)c2)cc1 -30%
Fc1ccc(-n2ncc3c(Nc4ccc(Oc5ccc(Cl)cc5)cc4)ncnc32)cc1 -9.04%
Cc1ccc(N2CC(c3nnc(Cc4ccc(F)cc4Cl)o3)CC2=O)cc1 (centres undefined) -1.72%
